The other results are listed elsewhere or left out. Values were computed here from the reads of four pooled replicates and scatter widely.
Target: T1, Pho4 (S. cerevisiae) (UniProt P07270)
T1 sequence: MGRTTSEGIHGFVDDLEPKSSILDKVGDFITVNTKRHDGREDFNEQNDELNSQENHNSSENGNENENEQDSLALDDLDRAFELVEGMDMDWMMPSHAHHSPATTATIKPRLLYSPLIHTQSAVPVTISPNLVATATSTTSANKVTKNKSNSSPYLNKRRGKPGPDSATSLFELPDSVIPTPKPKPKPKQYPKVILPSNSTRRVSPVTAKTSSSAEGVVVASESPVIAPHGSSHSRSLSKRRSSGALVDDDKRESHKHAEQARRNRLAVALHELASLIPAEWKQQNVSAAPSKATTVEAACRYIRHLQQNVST
Assay: relative binding free energy (BET-seq); higher = weaker binding
Conditions: reference: library average

Sequence	relative binding free energy
GGGGACACGTGTCGTT	0.06 kcal/mol
TAGTGCACGTGAGCGG	0.06 kcal/mol
TTCGGCACGTGGTGGT	-0.25 kcal/mol
GCTGGCACGTGGCATG	-0.09 kcal/mol
CATTTCACGTGGGTCT	0.19 kcal/mol
GGTGTCACGTGTAGAG	0.19 kcal/mol
TAATGCACGTGGGAGA	-0.3 kcal/mol
TTTTACACGTGGCTTG	0.04 kcal/mol
GCGTACACGTGAGGTG	0.3 kcal/mol
GGCCGCACGTGTCGGG	0.15 kcal/mol
TGAAACACGTGATAAG	0.52 kcal/mol
GGGTACACGTGATATG	0.1 kcal/mol
ATGTCCACGTGTAGGA	0.06 kcal/mol
GCGTGCACGTGTGCGT	-0.07 kcal/mol
GTATCCACGTGTGAGG	0.12 kcal/mol
TTGTACACGTGGCAAG	0.05 kcal/mol
AGAGTCACGTGGAAGG	0.15 kcal/mol
TAGTTCACGTGTTTAC	0.31 kcal/mol
AGGCCCACGTGGTGGA	-0.13 kcal/mol
GTTGGCACGTGACAGT	-0.13 kcal/mol
GTAGTCACGTGCTGGT	0.07 kcal/mol
GTTCGCACGTGTGTAT	-0.03 kcal/mol
TTATGCACGTGATTTC	0.18 kcal/mol
GATGTCACGTGAATTA	0.43 kcal/mol
TCAAACACGTGTGGTG	-0.06 kcal/mol
TTAAGCACGTGCGTGC	-0.1 kcal/mol

Sequence	relative binding free energy
TTAAGCACGTGTCGTT	-0.03 kcal/mol
GGTGCCACGTGGCGGG	-0.2 kcal/mol
ATTATCACGTGTGACG	0.17 kcal/mol
GAAGGCACGTGCGGTT	-0.04 kcal/mol
GGTCTCACGTGCGTTT	0.32 kcal/mol
GTTAGCACGTGTTAAA	0.09 kcal/mol
TCTTGCACGTGAGGGA	0.19 kcal/mol
ATGCCCACGTGGGGGG	-0.25 kcal/mol
AATAACACGTGGTTTG	-0.08 kcal/mol
TTGGACACGTGTTGAG	0.04 kcal/mol
CCTGGCACGTGGGTAG	-0.28 kcal/mol
GACTGCACGTGTTGGT	0.06 kcal/mol
TTTTGCACGTGACGAA	0.07 kcal/mol
GTTCACACGTGTGAGG	0.19 kcal/mol
GTTGTCACGTGGACTA	0.18 kcal/mol
CGGTGCACGTGAGCGT	0.1 kcal/mol
GGGGTCACGTGTGCGA	0.16 kcal/mol
TCAGACACGTGTTTGG	-0.09 kcal/mol
GGGGTCACGTGCAGTA	0.22 kcal/mol
TTTGTCACGTGGCAGC	0.01 kcal/mol
TGGTCCACGTGGCTTG	-0.06 kcal/mol
GGTGTCACGTGTGAGG	0.24 kcal/mol
ATGGGCACGTGTAGTG	-0.08 kcal/mol
TGCGGCACGTGAGAAG	0.11 kcal/mol
ATATGCACGTGTATTG	-0.08 kcal/mol
AAGTTCACGTGAAAGT	0.33 kcal/mol

Sequence	relative binding free energy
GTGCTCACGTGTTAGG	0.27 kcal/mol
GATATCACGTGAGTTT	0.37 kcal/mol
ATAATCACGTGGATTG	0.08 kcal/mol
ATGAGCACGTGGCGGG	-0.29 kcal/mol
TGGGGCACGTGAGTAT	0.14 kcal/mol
TGTGGCACGTGTGCTT	-0.25 kcal/mol
TCTTACACGTGGGTCT	0.14 kcal/mol
TTGAGCACGTGGGGTA	-0.19 kcal/mol
GAATGCACGTGGGGGC	-0.09 kcal/mol
AGTATCACGTGGGCTG	0.14 kcal/mol
TGGGGCACGTGGACCT	-0.19 kcal/mol
GTTTTCACGTGTTCCT	0.28 kcal/mol
CAGTACACGTGATGTT	0.22 kcal/mol
AAAGGCACGTGCCGGG	-0.17 kcal/mol
AGGCTCACGTGTGAGG	0.27 kcal/mol
CTATGCACGTGGTTGG	-0.06 kcal/mol
TTAGTCACGTGAGGGG	0.38 kcal/mol
ATAGGCACGTGGGGTT	-0.29 kcal/mol
TAGGGCACGTGACTAG	0.01 kcal/mol
TCGGGCACGTGCTGGG	-0.21 kcal/mol
ATCGTCACGTGGTGTG	0.07 kcal/mol
TTGGGCACGTGGTTAA	-0.25 kcal/mol
GGTGTCACGTGCCATT	0.06 kcal/mol
GGGATCACGTGGCAGT	0.16 kcal/mol
TAGCGCACGTGAGGGT	-0.02 kcal/mol
AAAGTCACGTGTAGAG	0.11 kcal/mol

Sequence	relative binding free energy
AAGATCACGTGGATTG	0.12 kcal/mol
TTTCGCACGTGGTCGT	-0.08 kcal/mol
GGGTTCACGTGACGGA	0.53 kcal/mol
TATGGCACGTGTAGAG	-0.05 kcal/mol
GGTTTCACGTGTCCGT	0.35 kcal/mol
TAAGTCACGTGTATAG	-0.15 kcal/mol
TTTGACACGTGTGTCA	0.03 kcal/mol
GGGCGCACGTGGTAGG	-0.18 kcal/mol
AGGCACACGTGAGTTG	0.26 kcal/mol
TGTGACACGTGTGTTT	-0.04 kcal/mol
CCTGGCACGTGGTTGT	-0.18 kcal/mol
GGGTGCACGTGGTAGG	-0.09 kcal/mol
TGTGCCACGTGTGCGA	0.01 kcal/mol
GATTTCACGTGTATGG	0.18 kcal/mol
TTGGGCACGTGTATAT	-0.06 kcal/mol
CTTTTCACGTGAAGTA	0.41 kcal/mol
TTGCTCACGTGTGCGA	0.28 kcal/mol
GGGTACACGTGTAGGT	0.19 kcal/mol
ATCGTCACGTGGAGGT	0.14 kcal/mol
ATCGACACGTGTGGTT	0.12 kcal/mol
TAGGGCACGTGTCTTG	-0.08 kcal/mol
AGTGGCACGTGAAGAC	0.25 kcal/mol
ATGTGCACGTGAGTGT	0.11 kcal/mol
TGATCCACGTGGTTGG	-0.08 kcal/mol
GATGTCACGTGCGGGT	0.18 kcal/mol
TGTTTCACGTGAGGGT	0.44 kcal/mol

Sequence	relative binding free energy
GGGCACACGTGAGTAG	0.28 kcal/mol
GGTGGCACGTGATGGT	0.12 kcal/mol
TCAGTCACGTGTCGGG	0.17 kcal/mol
GGATGCACGTGAGCGG	0.24 kcal/mol
AGGAACACGTGTATAT	0.09 kcal/mol
GGGCGCACGTGTTCTT	0.07 kcal/mol
CGGGGCACGTGTGCTG	-0.12 kcal/mol
CGTGTCACGTGTCTGT	0.11 kcal/mol
TTGAGCACGTGTGCGT	-0.05 kcal/mol
AGGAACACGTGGGCGG	-0.04 kcal/mol
TAGAACACGTGATTGG	0.09 kcal/mol
ATTGGCACGTGTCGCG	-0.05 kcal/mol
ACTTTCACGTGTTAGG	0.16 kcal/mol
TTATGCACGTGCTATG	-0.24 kcal/mol
TCGGGCACGTGGCGGA	-0.23 kcal/mol
GGTTACACGTGCGTAT	0.06 kcal/mol
GGTTTCACGTGATGGC	0.58 kcal/mol
AATTACACGTGGATTG	0.24 kcal/mol
AGCTTCACGTGTTTGA	0.15 kcal/mol
CTTGGCACGTGCAGTA	0 kcal/mol
TGTCACACGTGGGATT	-0.08 kcal/mol
AGTCACACGTGGGTAT	-0.06 kcal/mol
TGGATCACGTGCGTTG	0.13 kcal/mol
TTGCGCACGTGTGGTG	-0.16 kcal/mol
GAATACACGTGGGGTT	-0.02 kcal/mol
AGCGACACGTGGGTGT	-0.22 kcal/mol

Sequence	relative binding free energy
AGTGGCACGTGTCAGG	-0.21 kcal/mol
TAGCGCACGTGATGTG	-0.06 kcal/mol
TGCTTCACGTGCATTT	0.22 kcal/mol
AACAACACGTGGTTGT	0.04 kcal/mol
ATGATCACGTGGTGTT	0.11 kcal/mol
CACGGCACGTGGTGGG	-0.2 kcal/mol
TGAGACACGTGTTTTG	0.11 kcal/mol
TTGGACACGTGTGTCT	0.11 kcal/mol
TCATGCACGTGTAGAG	0.18 kcal/mol
GGTATCACGTGGGAAT	0.08 kcal/mol
AGGCGCACGTGGTATG	-0.16 kcal/mol
TTCTTCACGTGATCGT	0.21 kcal/mol
GGAAACACGTGGGGAG	-0.12 kcal/mol
TGTCTCACGTGGGTTT	0.17 kcal/mol
AGGGCCACGTGGTGAA	-0.26 kcal/mol
GAGCTCACGTGGGTTT	0.1 kcal/mol
GGGCGCACGTGTGGTT	-0.12 kcal/mol
TTGCTCACGTGTTTGC	0.21 kcal/mol
GTTTGCACGTGGCGGA	-0.07 kcal/mol
CTATACACGTGTAGGG	0.14 kcal/mol
AGGAGCACGTGAGGTA	0.2 kcal/mol
GCTTCCACGTGTTGGG	0.12 kcal/mol
GCAAGCACGTGGGGGG	-0.17 kcal/mol
AGGGGCACGTGGGCGA	-0.23 kcal/mol
TGGCTCACGTGTTGCA	0.28 kcal/mol
TATTTCACGTGCTTGC	0.24 kcal/mol

Sequence	relative binding free energy
GGATTCACGTGTGAAG	0.39 kcal/mol
ATTGTCACGTGAGCGA	0.16 kcal/mol
AATTGCACGTGTGCGA	-0.04 kcal/mol
TTGGACACGTGTAAGA	0.15 kcal/mol
ATTATCACGTGGATTG	0.12 kcal/mol
TTTGGCACGTGCCAGG	-0.12 kcal/mol
TGGTACACGTGAGGTC	0.42 kcal/mol
TATTGCACGTGGTTGA	0.02 kcal/mol
TGGTTCACGTGAAAGT	0.27 kcal/mol
TTCTTCACGTGTATAT	0.33 kcal/mol
GAGGGCACGTGGGATT	-0.14 kcal/mol
AATCCCACGTGTTGGT	0.06 kcal/mol
ATGTGCACGTGGGTTG	-0.08 kcal/mol
AGTATCACGTGGGTGG	-0.02 kcal/mol
TGTGTCACGTGGGAGT	-0.01 kcal/mol
TGGGACACGTGCTGGC	-0.02 kcal/mol
GTCATCACGTGTTGAG	0.23 kcal/mol
AGTGACACGTGCAGGT	-0.08 kcal/mol
TTTAGCACGTGCGTTA	-0.13 kcal/mol
CTGGGCACGTGCGGCG	-0.1 kcal/mol
GTGGACACGTGTGTAT	0.18 kcal/mol
ATTGTCACGTGCATTG	-0.03 kcal/mol
TTGGACACGTGAGGTG	0.27 kcal/mol
AGGTACACGTGTTGCG	0.02 kcal/mol
AGTAGCACGTGTTCAA	0.06 kcal/mol
GGGGACACGTGAAGTG	0.15 kcal/mol

Sequence	relative binding free energy
TTGAGCACGTGCTTTG	-0.15 kcal/mol
GTATTCACGTGATGAA	0.27 kcal/mol
ATGGCCACGTGAGGGA	0.04 kcal/mol
TACGACACGTGAGGGG	0.2 kcal/mol
TGGAACACGTGGAAAG	0.31 kcal/mol
CGGTGCACGTGATAAG	0.04 kcal/mol
TTCAGCACGTGGGAAT	-0.18 kcal/mol
ATGTCCACGTGTGGGT	0.05 kcal/mol
TTATGCACGTGCGATG	-0.04 kcal/mol
ATAATCACGTGGTTGA	0.2 kcal/mol
AAAATCACGTGAGCGG	0.56 kcal/mol
TGTCTCACGTGTTAGT	0.13 kcal/mol
TGGGACACGTGTCCGG	-0.04 kcal/mol
TCGTGCACGTGGGAGG	-0.12 kcal/mol
TTTTTCACGTGATTCA	0.31 kcal/mol
ATTTTCACGTGGCAGG	0.19 kcal/mol
ATTTTCACGTGTGCAG	0.2 kcal/mol
ATTGCCACGTGGGTTC	-0.18 kcal/mol
CTGTTCACGTGAAGGT	0.36 kcal/mol
ATCGCCACGTGGGTGG	-0.26 kcal/mol
GTGGGCACGTGAAGGC	0.31 kcal/mol
CGGGGCACGTGGCGGT	-0.2 kcal/mol
CAGTGCACGTGAGGTG	0.16 kcal/mol
TACGTCACGTGCTGTG	0.11 kcal/mol
TTGTTCACGTGCCATG	0.24 kcal/mol
TTAGTCACGTGGTGAG	-0.02 kcal/mol

Sequence	relative binding free energy
TTGGTCACGTGTCTTC	0.13 kcal/mol
TCAGGCACGTGGGTTT	-0.1 kcal/mol
TTCGACACGTGTATGG	0.04 kcal/mol
TGGGGCACGTGATCAG	-0.02 kcal/mol
AAGAGCACGTGGTTAG	-0.17 kcal/mol
TATTCCACGTGGGTTA	-0.04 kcal/mol
CGGGGCACGTGGCTGG	-0.21 kcal/mol
AGATGCACGTGAAGTA	0.34 kcal/mol
GTCGACACGTGGTGGG	0.05 kcal/mol
CTTGTCACGTGTTTTA	0.2 kcal/mol
TGACTCACGTGTGGGC	0.27 kcal/mol
TATATCACGTGGTTAA	0 kcal/mol
TCGGACACGTGCGGGG	-0.17 kcal/mol
TCGGTCACGTGCAGGT	0.05 kcal/mol
TTGTGCACGTGGATCT	0.01 kcal/mol
AACGGCACGTGAAGGT	0.23 kcal/mol
GTTAGCACGTGTTTAA	-0.12 kcal/mol
AGAATCACGTGTAGGT	0.15 kcal/mol
AAGGACACGTGGGGAT	-0.08 kcal/mol
GGGGACACGTGTAAGA	0.19 kcal/mol
TCCATCACGTGGGGGT	0.13 kcal/mol
GGTGCCACGTGGCTGT	-0.11 kcal/mol
